Assay results from patent US20250179143A1, “SYSTEMS AND METHODS FOR CHAPERONE-MEDIATED LIGAND EXCHANGE ON MHC-I AND MHC-RELATED MOLECULES USING CHICKEN TAPBPR” (priority 2022, published 2025).

Columns and labels:
[1] = DSF thermal stability of chaperone proteins; settings: DSF of the recombinant chaperone protein
HLA-A*02:01 = HLA-A*02:01 (Homo sapiens, UniProt P04439, D140Y/D185E/D98H/E176V/E277Q/G131W/G231S/I119V/I121R/I166T/I218V/L300P/L318F/N151K/N90K/P208A/P217A/Q86G/Q94H/R138H/R169H/T345S); assay: SPR; settings: peptide-deficient (empty) HLA-A*02:01
HLA-A*01:01 = HLA-A*01:01 (Homo sapiens, UniProt P04439, A114D/A174V/A182V/D101N/D185E/E176A/E190D/L180R/Q94H/R68K/S129P/T187R/V100A/V91M/W191G); assay: Fluorescence polarization (FP) peptide exchange; settings: HLA-A*01:01, chaperone at 5 μM
HLA-B*08:01 = HLA-B*08:01 (Homo sapiens, UniProt P01889, A93T/A95T/D138N/E176V/E187T/K202T/Q94N/R180D/S35A/V36M/Y33D/Y91F); assay: Fluorescence polarization (FP) peptide exchange; settings: based on DSF or FP assays

B1: hTAPBPR^FLQ: human TAPBPR mutant S104F, K211L, R270Q (protein)
chain: KPHPAEGQWRAVDVVLDCFLAKDGAHRGALASSEDRARASLVLKQVPVLDDGSLEDFTDFQGGTLAQDDPPIIFEASVDLVQIPQAEALLHADCSGKEVTCEIFRYFLQMTETTVKTAAWFMANMQVSGGGPSISLVMKTPRVTKNEALWHPTLNLPLSPQGTVRTAVEFQVMTQTQSLSFLLGSSASLDCGFSMAPGLDLISVEWRLQHLGRGQLVYSWTAGQGQAVRKGATLEPAQLGMARDASLTLPGLTIQDEGTYICQITTSLYQAQQIIQLNIQASPKVRLSLANEALLPTLICDIAGYYPLDVVVTWTREELGGSPAQVSGASFSSLRQSVAGTYSISSSLTAEPGSAGATYTCQVTHISLEEPLGASTQVVPPERR
[1]
  Tm: 51.8 °C
HLA-A*02:01
  Kd: 81 nM
HLA-A*01:01
  apparent rate constant kapp: 0.00068 s⁻¹
HLA-B*08:01
  Peptide exchange: failed to catalyze peptide exchange
